PubChem BioAssay AID686979 (National Center for Advancing Translational Sciences (NCATS), 2013)
In all, about 420,000 compounds went through this assay and about 50,000 (12%) were called active. The inconclusive results got no clear call from the source; some entries with a clear call stand among them for comparison. Calls come from the whole dose curve; as a rule, active = well fitted inhibition curve with a large enough effect; inconclusive = small, poorly fitted or top-dose-only effect; inactive = flat fitted curve, though single readings scatter. No potency is given beside an inconclusive call; the fits are too rough.
Potency is the fitted concentration of half-maximal effect; tags give direction and shape of the fitted curve.

Experiment: qHTS for Inhibitors of human tyrosyl-DNA phosphodiesterase 1 (TDP1): qHTS in cells in presence of CPT; note: nearly all actives have a fitted effect of over 55% in size
Details: chicken DT40 Tdp1-/-;hTDP1 cells + 20 nM CPT, ATP luminescence, 48 h; series mostly up to 46.2 µM
Summary of the method: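 Chicken DT40 Tdp1-/- cells stably complemented with human TDP1 were seeded at 400 cells/well in medium containing 20 nM camptothecin, exposed to pin-transferred compounds, and grown at 37 °C for at least 48 hr. Viability was read as ATP luminescence.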
With `O=C1/C(=C/c2ccccc2)SC(=S)N1N1C(=O)C2CC2C1=O` (centres undefined) the Potency was “inactive”.
For `Cc1cc(C)cc(C(=O)Nc2nc3ccccc3[nH]2)c1`, the Potency was inconclusive [inhibitor, single point].
With `CCOc1ccccc1Nc1cc(C)nc2ccc(C)cc12` the Potency was inconclusive [inhibitor, single point].
For `O=C(Nc1nc2ccc(SC(F)F)cc2s1)c1ccc(NS(=O)(=O)c2ccc(F)c(F)c2)cc1`, the Potency was inconclusive [inhibitor, single point].
With `Cc1nn(C)c(C)c1NC(=O)COc1ccc(F)cc1Br` the Potency was inconclusive [inhibitor, single point].
With `O=C(NCc1ccco1)c1ccc2c(c1)N(Cc1ccc(F)cc1)C(=O)c1ccccc1S2(=O)=O` the Potency was inconclusive [inhibitor, single point].
In the case of `CC(=O)SC(C[N+](=O)[O-])c1cn(C(C)=O)c2ccccc12` (centres undefined), the Potency is reported as active: 4.61 µM.
With `CCOC(=O)c1sc(N)c(C#N)c1CSc1nc2ccc(C)cc2[nH]1` the Potency was inconclusive [inhibitor, single point].
With `CCCCN1C(=O)C(O)(CC(=O)c2ccc(C)cc2C)c2cc(Br)ccc21` (centres undefined) the Potency was active: 16.4 µM.
In the case of `CCOc1ccc(C)cc1S(=O)(=O)n1nc(C)cc1C`, the Potency is reported as “inactive”.
In the case of `Cc1ccc(-n2cc(-c3ccc([N+](=O)[O-])cc3)[nH]c2=S)c(C)c1`, the Potency is reported as active: 16.4 µM.
In the case of `CN1\C(=C/C=C/C=C/C=[N+](C)C)C(C)(C)c2ccccc21`, the Potency is reported as active: 2.59 µM.
In the case of `COc1ccc(N(CC(=O)N2CCN(c3ccc(F)cc3)CC2)S(=O)(=O)c2c(C)noc2C)cc1`, the Potency is reported as active: 25.9 µM.
For `COc1ccc2c(c1)C/C(=C\c1ccc(N(C)C)cc1)C2=O`, the Potency was inconclusive [inhibitor, single point].
For `CCn1c(-c2ccccc2Cl)nn(CC(=O)NCCc2ccccc2)c1=S`, the Potency was inconclusive [inhibitor, single point].
In the case of `COc1cccc(CNC(=O)c2cc(Sc3cccc(Cl)c3)nc3ccccc23)c1`, the Potency is reported as inconclusive [inhibitor, single point].
With `Cc1ccc(/C=C/C(=O)Nc2ccccc2C(N)=O)o1` the Potency was inconclusive [inhibitor, single point].
For `O=[N+]([O-])c1ccc(-c2csc(Nc3ccccc3)[n+]2Cc2ccccc2)cc1`, the Potency was active: 20.6 µM.
For `CC(C)Oc1cc(F)ccc1-c1cc(C(=O)Nc2ccc(F)cc2)[nH]n1`, the Potency was inconclusive [inhibitor, single point].
With `COc1cccc(CN2C(=O)CN(C3CCCCC3)C(=O)C2c2ccc(F)cc2)c1` (centres undefined) the Potency was inconclusive [inhibitor, partial curve].
With `Cc1cc(NC(=O)CSc2nnc(C)o2)no1` the Potency was “inactive”.
With `O=C(Cc1ccccc1)Nc1cccc(NC(=O)c2cccs2)c1` the Potency was inconclusive [inhibitor, single point].
For `O=C1CCCC(=O)C1C(=O)C1CCN(S(=O)(=O)c2ccccc2)CC1`, the Potency was inconclusive [inhibitor, partial curve, poor fit].
For `O=C(CNc1cccc(Cl)c1)c1ccc(Br)cc1`, the Potency was inconclusive [inhibitor, single point].
In the case of `COc1ccccc1NC(=O)COc1ccc(-c2nn(C)c(=O)c3ccccc23)cc1`, the Potency is reported as active: 13 µM.
In the case of `Cc1ccc2oc(=O)n(Cc3ccccc3OC(C)C)c2c1`, the Potency is reported as inconclusive [inhibitor, single point].
In the case of `CCCn1c(=O)c2c(nc3n2CCCN3Cc2ccccc2)n(C)c1=O`, the Potency is reported as inconclusive [inhibitor, single point].
In the case of `Cn1cc([C@]2(O)C(=O)N(c3ccccc3)c3ccccc32)c2ccccc21`, the Potency is reported as inconclusive [inhibitor, single point].
For `O=C(Nc1ccc2c(c1)CCC2)c1ccc(F)c(S(=O)(=O)N2CCOCC2)c1`, the Potency was inconclusive [inhibitor, single point].
In the case of `Cc1cccc(CN2CCN(C3CN(Cc4cn(Cc5cc(C)cc(C)c5)nn4)S(=O)(=O)C3)CC2)c1` (centres undefined), the Potency is reported as inconclusive [inhibitor, single point].
In the case of `CCCn1cc(CN2CCC(n3nccc3NC(=O)c3ccc4c(c3)OCO4)CC2)c(C)n1`, the Potency is reported as “inactive”.
For `CCCCOc1ccc(S(=O)(=O)n2c(C)nc3ccccc32)cc1`, the Potency was inconclusive [inhibitor, single point].
In the case of `Cn1cccc1Cc1nnc(SCC(=O)NCc2ccc(F)cc2)n1-c1ccc(F)cc1`, the Potency is reported as inconclusive [inhibitor, partial curve].
In the case of `Cc1cc(C)cc(-n2nnnc2SCC(=O)Nc2nc(-c3ccc(Cl)cc3)cs2)c1`, the Potency is reported as inconclusive [inhibitor, single point].
In the case of `COc1cc2ccccc2cc1C(=O)N1CCc2ccccc21`, the Potency is reported as active: 16.4 µM.
With `CCC(C)(C)NC(=O)C(c1cccc(OC)c1OC)N(CCC(C)C)C(=O)CCC(=O)Nc1cc(C)on1` (centres undefined) the Potency was inconclusive [inhibitor, single point].
In the case of `O=C(/C=C/C=C/c1ccccc1)CC1(O)C(=O)N(CCc2ccccc2)c2ccccc21` (centres undefined), the Potency is reported as active: 20.6 µM.
In the case of `COc1ccc(-n2c(=O)c(CCc3ccccc3)nc3cnc(N4CCN(C)CC4)nc32)cc1`, the Potency is reported as “inactive”.
With `Cc1c(C(=O)N2CCOCC2)oc2c1-c1nn(CC(=O)NCc3cccc(Cl)c3)cc1CC2` the Potency was inconclusive [inhibitor, single point].
With `COc1cccc(-c2cnc3c(NC=O)cc(-c4ccc(N(C)C)cc4)cn23)c1` the Potency was active: 14.6 µM.
With `N#CCOC(=O)/C=C/c1ccc2c(c1)OCO2` the Potency was “inactive”.
In the case of `O=C1CC(c2ccc(F)cc2)Sc2ccccc2N1` (centres undefined), the Potency is reported as inconclusive [inhibitor, single point].
For `Cc1ccc(CCNC(=O)C2CC(c3cc(C(F)(F)F)cc(C(F)(F)F)c3)=NO2)cc1` (centres undefined), the Potency was inconclusive [inhibitor, single point].
In the case of `CCC12CN3CCN(CC(C3)/C1=N\NC(=O)c1ccc(F)cc1)C2`, the Potency is reported as inconclusive [inhibitor, single point].
